In patent publication EP4722247A1 (Oricell Therapeutics Co., Ltd., dated 2026):

T1: Human CD39-His protein (CD9-H52H4, ACRO Biosystems) (human, UniProt P49961 38-478)
T1 construct: Purchased protein; also called human CD39-His antigen; human CD39 protein; not shown: His tag
T1 sequence (looked up): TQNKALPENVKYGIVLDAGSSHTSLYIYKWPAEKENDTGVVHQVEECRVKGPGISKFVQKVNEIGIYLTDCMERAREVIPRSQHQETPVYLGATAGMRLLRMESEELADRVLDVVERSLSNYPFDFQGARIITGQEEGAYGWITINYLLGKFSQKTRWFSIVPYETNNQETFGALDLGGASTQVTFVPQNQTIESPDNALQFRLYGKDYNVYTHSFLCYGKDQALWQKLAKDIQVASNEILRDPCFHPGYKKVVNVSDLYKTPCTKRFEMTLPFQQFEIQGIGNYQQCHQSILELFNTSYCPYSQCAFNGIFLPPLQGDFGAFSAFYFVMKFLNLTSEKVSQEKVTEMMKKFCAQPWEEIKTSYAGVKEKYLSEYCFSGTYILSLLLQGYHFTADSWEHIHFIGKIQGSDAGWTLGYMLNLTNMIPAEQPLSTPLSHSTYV

B1: B393-D07 (Fc fusion)
chain: QLQLVESGGGLVQPGGSLRLSCAASGFTLDYYAIAWFRQRPGKEREGVSCISSSNGNINYADSVKGRFTASRDNAKNTVYLQMNSLKPEDTAVYYCAADLSAAPYNDAVRSCTGGSRLRATYDFWGQGTQVTVSS[human IgG4 Fc with S228P (EU numbers) omitted here]
notes: Bivalent VHH-IgG4 Fc made in Expi293F; no extra linker is stated
B2: B39C8-G05 (Fc fusion)
chain: EVQVVESGGGLVQPGGSLRLSCAASGFTLDYYAIAWFRQAPGKGREGVSCISSSGGSTNYADSVKGRFTASRDTAKNTVYLQMNSLKPEDTAVYYCAADLSAAPYNDAVRSCTGGNRLAATYDFWGQGTQVTVSS[human IgG4 Fc with S228P (EU numbers) omitted here]
notes: as for B1
B3: B39C6-G06 (Fc fusion)
chain: QLQLVESGGGLVQPGGSLRLSCAASGFTLDYYAIGWFRQAPGKEREGVACISSSGGSTNYADFVRGRFSSSRDNAKNTVYLQMDSLKPEDTAVYYCAADVSTAPYNDAVRSCTGGNRLASTYDVWGQGTQVTVSS[human IgG4 Fc with S228P (EU numbers) omitted here]
notes: as for B1
B4: B391-A04 (Fc fusion)
chain: QVQLVESGGGLVQAGGSLRLSCTASGGTFSSRTMGWFRQPPGKEREFVAIMTWIGDVGLYADSVKGRFTISRDNARNTLYLQMNNLKPEDTAVYYCGASRGGSYSMVIHTTSPNDYDYWGQGTQVTVSS[human IgG4 Fc with S228P (EU numbers) omitted here]
notes: as for B1
B5: B391-G06 (Fc fusion)
chain: QLQLVESGGGLVQTGGSLRLSCTASGGTFRSKTMGWFRQAPGKEREFVAIMTWIGDVGLYADSVKGRFTISRDNARNTLYLQMNNLKPEDTAVYYCGASRGGPPYSMVVHTTSPNGYDYWGQGTQVTVSS[human IgG4 Fc with S228P (EU numbers) omitted here]
notes: as for B1
B6: B391-hF04 (Fc fusion)
chain: EVQLVESGGGLVQPGGSLRLSCAASGFTFSNLGMSWYRQAPGKAREWVGSISASGDYTTYQNSVKGRFTISRDNSKNTLYLQMNSLRAEDTAVYYCTRRVDSYPRGQGTLVTVSS[human IgG4 Fc with S228P (EU numbers) omitted here]
notes: also called B391-hF04 humanized antibody; humanized B391-F04

molecular target: T1, Human CD39-His protein (CD9-H52H4, ACRO …); experiment: BLI (Fortebio), antibody on AHC probe, human CD39-His in solution

Q: With B1 as the binder, how does the Kd read?
A: Its Kd is 1.15 nM.

Q: What about the koff of the same binder?
A: Its koff is 0.000151 s⁻¹.

Q: And the kon?
A: Its kon is 132000 M⁻¹ s⁻¹.

Q: B2 was tested. Which Kd did it give?
A: Its Kd is 0.264 nM.

Q: What about the koff of the same binder?
A: The koff was 4.06e-05 s⁻¹.

Q: What about the kon of the same binder?
A: The kon was 154000 M⁻¹ s⁻¹.

Q: What does the source list for B3?
A: Kd: 0.579 nM; koff: 8.25e-05 s⁻¹; kon: 143000 M⁻¹ s⁻¹

Q: For B4, which Kd is on record?
A: Its Kd is 7.76 nM.

Q: What about the koff of the same binder?
A: Its koff is 0.000778 s⁻¹.

Q: What about the kon of the same binder?
A: The kon was 100000 M⁻¹ s⁻¹.

Q: Which Kd does the source give for B5 here?
A: The Kd was 5.23 nM.

Q: And the koff?
A: Its koff is 0.000447 s⁻¹.

Q: What about the kon of the same binder?
A: Its kon is 85500 M⁻¹ s⁻¹.

molecular target: T1, Human CD39-His protein (CD9-H52H4, ACRO …); experiment: as above; remark: another data set of the same source

Q: For B6, which Kd is on record?
A: Its Kd is 0.866 nM.

Q: What about the koff of the same binder?
A: Its koff is 0.000354 s⁻¹.

Q: And the kon?
A: The kon was 409000 M⁻¹ s⁻¹.
